A compilation of properties of binary mixtures (doi:10.1021/acs.jced.0c01028)
The densities may have been worked out from excess volumes.

Assay: xn = mol fraction of the nth substance listed
Conditions: 81.5 kPa

CCCC[n+]1ccn(C)c1.N#C[S-] + CCCCC(C)O
x1 = 1
Conditions | mass density [kg/m3]
298.15 K | 1069.8
308.15 K | 1063.9
318.15 K | 1058
328.15 K | 1052.2
338.15 K | 1046.4

CCCCC(C)O (configuration not stated) + CCCC[n+]1ccn(C)c1.N#C[S-]
mass density [kg/m3]
Conditions | x2 = 0 | x2 = 0.1011 | x2 = 0.2003 | x2 = 0.2992 | x2 = 0.3988 | x2 = 0.4964 | x2 = 0.6029 | x2 = 0.6993 | x2 = 0.7996 | x2 = 0.8987
288.15 K | 818.1 | – | 890.3 | 921.2 | 949.6 | 974.9 | 1000.2 | 1021.2 | – | 1059.5
298.15 K | – | 848.9 | 883.3 | – | 943.2 | 968.8 | 994.2 | 1015.1 | 1035 | 1053
308.15 K | 802.2 | 841.2 | 875.9 | 907.4 | 936.3 | 962.2 | 987.9 | 1009.2 | – | 1047.3
318.15 K | 793.9 | – | 869.3 | – | – | 956.1 | 981.9 | 1003.1 | 1023 | 1041.1
328.15 K | 785.3 | – | – | 894.5 | 924 | 950 | 975.8 | 997.2 | 1017.3 | 1035.5
338.15 K | 776.5 | 818.5 | – | 887.5 | 917.4 | – | 969.9 | – | 1011.8 | 1030.1
